Source: PMC4336329 (PLoS ONE, 2015)
The whole screen tested about 310,000 compounds, of which about 14,000 (4.5%) showed an effect of 50% or more. Effects have a minus sign here. This is one part of the list.

Target: human ether-à-go-go-related gene (hERG) potassium channel (human, UniProt Q12809)
Assay: primary screen, population patch clamp on CHO cells stably expressing hERG
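Also: peak tail current of the secondary pulse compared with the same well before compound.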

Sequence of human ether-à-go-go-related gene (hERG) potassium channel (Q12809 whole entry, looked up): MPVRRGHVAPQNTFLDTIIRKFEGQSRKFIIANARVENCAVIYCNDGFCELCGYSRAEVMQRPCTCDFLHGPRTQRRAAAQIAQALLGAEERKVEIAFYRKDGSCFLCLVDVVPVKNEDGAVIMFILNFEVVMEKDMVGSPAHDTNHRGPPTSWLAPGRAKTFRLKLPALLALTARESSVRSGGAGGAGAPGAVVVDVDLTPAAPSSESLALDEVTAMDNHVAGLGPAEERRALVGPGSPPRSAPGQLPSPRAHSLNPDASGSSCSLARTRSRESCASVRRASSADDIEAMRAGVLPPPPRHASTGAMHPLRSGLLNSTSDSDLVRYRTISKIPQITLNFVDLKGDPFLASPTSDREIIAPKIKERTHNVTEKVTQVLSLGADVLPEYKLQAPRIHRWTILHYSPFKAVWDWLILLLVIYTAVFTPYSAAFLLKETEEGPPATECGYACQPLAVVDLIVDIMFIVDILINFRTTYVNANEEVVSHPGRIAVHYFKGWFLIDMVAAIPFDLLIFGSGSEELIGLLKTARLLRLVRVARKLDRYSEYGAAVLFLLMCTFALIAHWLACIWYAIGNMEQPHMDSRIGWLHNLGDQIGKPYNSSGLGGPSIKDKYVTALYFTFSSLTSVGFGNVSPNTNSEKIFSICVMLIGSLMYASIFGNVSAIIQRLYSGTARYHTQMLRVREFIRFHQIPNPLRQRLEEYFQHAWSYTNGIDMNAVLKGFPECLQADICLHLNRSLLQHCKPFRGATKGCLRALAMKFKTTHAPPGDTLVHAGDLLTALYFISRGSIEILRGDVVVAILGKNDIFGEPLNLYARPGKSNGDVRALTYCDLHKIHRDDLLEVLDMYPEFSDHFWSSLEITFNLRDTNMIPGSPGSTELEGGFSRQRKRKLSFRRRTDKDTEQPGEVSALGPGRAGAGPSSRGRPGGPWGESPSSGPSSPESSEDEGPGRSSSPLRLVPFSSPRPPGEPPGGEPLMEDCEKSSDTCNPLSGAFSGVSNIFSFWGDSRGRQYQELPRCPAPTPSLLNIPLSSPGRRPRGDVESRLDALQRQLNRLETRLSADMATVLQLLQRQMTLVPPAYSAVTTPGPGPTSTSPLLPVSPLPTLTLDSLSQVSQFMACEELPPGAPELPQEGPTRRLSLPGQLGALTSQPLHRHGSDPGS

SMILES | hERG current change (%, negative = inhibition) at 10uM [%]
COc1ccc(CNCCC(c2ccc(OC(C)C)cc2)c2ccccc2OC)cc1 (stereo not drawn) | -66.1
Cc1cccc(C(=O)Nc2cccc(-c3cnc4ccccc4n3)c2)c1 | 9.62
CC1CCN(C(=S)NC(=O)c2ccccc2Br)CC1 | 18.2
COc1ccc(Cn2nnnc2C(c2cccnc2)N2CCN(c3ccc(O)cc3)CC2)cc1 (stereo not drawn) | -14.5
CCn1c(=O)cc(OCC(=O)NCCc2ccc(OC)c(OC)c2)c2ccccc21 | -10.8
COc1ccc(C(=O)NCCc2nnc3ccc(SCC(=O)Nc4ccccc4)nn23)cc1 | -13.5
Cc1cccc(N2CCN(C(=O)c3cc(S(=O)(=O)N4CCOCC4)cn3C)CC2)c1C | -21.6
COc1cc(/C=N/NC(=O)c2cccc(NC(=O)c3ccccc3C)c2)ccc1O | -48.4
Cc1cc(-c2nnc(CCC(=O)NC(C)c3ccc(F)cc3)o2)no1 (stereo not drawn) | -7.9
CN(C)S(=O)(=O)n1cc(/C=C(\NC(=O)c2ccccc2Cl)C(=O)NCCCN2CCOCC2)c2ccccc21 | 19.7
CN(CC(O)Cn1cnc2c1c(=O)n(C)c(=O)n2C)c1ccccc1 (stereo not drawn) | 9.87
CCn1nc(C)cc1C(=O)NC1CCCc2c1cnn2-c1cc(F)cc(F)c1 (stereo not drawn) | -5.58
COC(CN(C)C(=O)c1ccc(CS(=O)(=O)c2ccccc2C)o1)OC | 15.4
O=C(NCCN1C(=O)S/C(=C\c2cccnc2)C1=O)c1ccc(S(=O)(=O)N2CCCC2)cc1 | -11.3
Cc1cccc(C)c1N/C=C/c1onc(C)c1[N+](=O)[O-] | 13.9
O=c1c(Cl)c(N2CCN(c3ccccc3)CC2)cnn1C12CC3CC(CC(C3)C1)C2 | -12
CC1CCc2cc(F)ccc2N1C(=O)CSc1nnc2c(n1)[nH]c1ccccc12 (stereo not drawn) | 17.4
Cc1ccc(-c2csc(NC(=O)CN3C(=O)CCC3=O)n2)cc1 | 8.89
NC(Cc1c[nH]c2ccccc12)C(=O)Nc1ccccc1 (stereo not drawn) | -9.72
Cc1nn(C)c(C(=O)N/N=C/c2cccc(Oc3ccccc3)c2)c1Br | 16.4
CC(=O)CCC1C2C(O)C(C(C)C)C(OC(=O)/C=C/c3ccccc3)CC12C (stereo not drawn) | -14.6

SMILES | hERG current change (%, negative = inhibition) at 10uM [%]
CCCCN1CC(=O)N2[C@H]3c4cc(OC)ccc4OC[C@@H]3[C@H](C(=O)OCC)[C@]2(C)C1=O | -3.7
CN(c1ccc(C(=O)NCc2cccnc2)cc1)S(=O)(=O)c1ccc(Cl)cc1 | -15.8
O=C(Nc1ccc2c(c1)OCO2)c1ccc(Cl)cc1Cl | 2.07
Cc1cc(C)c(C#N)c(SCCS(=O)(=O)c2ccc(C(C)(C)C)cc2)n1 | -5.75
O=C(NCCOc1ccccc1)c1ccc2c(c1)OCO2 | 0.267
CN(CC(=O)Nc1ccc(F)c(F)c1)S(=O)(=O)c1cccc2cccnc12 | -36.9
Cc1csc(NC(=O)CSc2nnc(-c3ccccn3)n2-c2ccc(C)c(C)c2)n1 | -78.5
CCCN1CCN(CC(=O)Nc2nnc(C)s2)CC1 | 23.6
CC(=O)Nc1ccc(NC(=O)c2ccc(N(C)S(=O)(=O)c3ccc(C)cc3)cc2)cc1 | 6.8
Cc1ccc(N2CC(C(=O)N/N=C/c3sccc3C)CC2=O)cc1 (stereo not drawn) | -12
CCC1(C)COC2(OC1)C(=O)Nc1ccccc12 (stereo not drawn) | 8.96
Cc1csc(SCC(=O)c2ccc(S(=O)(=O)N3CCOCC3)cc2)n1 | 3.44
COc1ccc(CN(C)C(=O)C2CC(=O)N(c3ccc4c(c3)OCCO4)C2)c(OC)c1 (stereo not drawn) | -7.84
O=C(CSc1nc2c(c(=O)n1-c1ccc(F)cc1)SCC2)NCC1CCCO1 (stereo not drawn) | -2.45
C/C(CC(=O)Nc1ccc(Cl)cc1Cl)=N\NC(=O)C(=O)NCCO | 6.64
CCN(C(=O)CSc1nc2cc(S(=O)(=O)N(CC)CC)ccc2n1CC)C1CCS(=O)(=O)C1 (stereo not drawn) | -44.4
CCOc1cc(C(=O)Nc2cc(C)ccc2OC)ccc1OCC(=O)N1CCCCC1 | -5.75
FC(F)Oc1ccc(NC(=S)NCc2ccccc2)cc1 | -36.9
FC(F)(F)c1cccc(NC(=S)NCc2ccccc2)c1 | -9.97
CC(=O)c1ccc(Nc2nc(=O)c3cccnc3s2)cc1 | 0.27
CNC(=S)NNc1nc(C)cc(C)n1 | 17.6

SMILES | hERG current change (%, negative = inhibition) at 10uM [%]
Cc1ccc2nc(NC(=O)CSc3nc(=O)n(CCN(C)C)c4c3CCCC4)sc2c1 | -50.2
CC1=C(C(=O)N2CCOCC2)C(c2ccc(Cl)cc2)NC(=S)N1 (stereo not drawn) | 10.8
CCOC(=O)c1c(NC=O)sc2c1CCC2 | -2.89
CN(C)CCCSc1nc(-c2ccccc2)nc2c1CCC2 | -50.3
O=C(NCCc1ccccc1)c1ccc2c(c1)N(Cc1ccccc1)C(=O)CS2=O (stereo not drawn) | -8.69
COC(=O)c1ccccc1S(=O)(=O)N1CCC(C(=O)OCc2ccc([N+](=O)[O-])cc2)CC1 | -57.1
CCCc1cc(=O)[nH]c(SCC(=O)Nc2nonc2N)n1 | -5.4
COc1cccc(-n2nnnc2SCC(=O)NC2CCCC2)c1 | 3.62
COc1cccc(CN2C(=O)C(C)Oc3ccccc32)c1 (stereo not drawn) | 8.93
COc1ccc(S(=O)(=O)N2CCC(NC(=O)OCc3c(Cl)cccc3Cl)CC2)cc1 | 12.8
Cc1cc(NC(=O)CSc2nc(-c3ccccc3)nc3c2c(=O)n(C)c(=O)n3C)no1 | 9.63
O=C(CN1C(=O)CSc2cc(S(=O)(=O)N3CCCCCC3)ccc21)NCCc1ccccc1 | -12.6
COc1ccc(-c2nn(CCC(=O)O)cc2/C=N/NC(N)=S)cc1 | 2.54
COc1ccc(C(=O)NCCc2nnc3ccc(SCC(=O)Nc4cc(C)on4)nn23)cc1 | 4.8
CCCCC(=O)NC(c1ccc(Cl)cc1)c1ccc2cccnc2c1O (stereo not drawn) | -23.5
O=[N+]([O-])c1ccc(O)c([N+](=O)[O-])c1 | 9.06
Cc1ccc(-n2ncc3c(=O)n(CC(=O)NCc4ccco4)cnc32)cc1C | 19.3
S=c1[nH]nc(-c2ccc(Cl)cc2)n1-c1cccnc1 | 23.5
CCCOP(=O)(OCCC)C(NC(=O)c1ccccc1)=C(Cl)Cl | -1.95
O=C(Cn1ncc2c([nH]c3ccccc32)c1=O)NCC1CCN(Cc2ccccc2F)CC1 | -44.2
O=c1nc(NCc2ccccc2Cl)cn[nH]1 | -6.73

SMILES | hERG current change (%, negative = inhibition) at 10uM [%]
N=C1/C(=C/c2cccn2Cc2ccc(Cl)cc2)C(=O)N=C2SC=CN12 | -2.07
COc1ccc(C)cc1NC(=S)NC12CN3CN(CN(C3)C1)C2 | 27
CC(C)(C)OC(=O)[C@H](Cc1ccccc1)NC(=O)c1[nH]cnc1C(=O)N[C@@H](Cc1ccccc1)C(=O)OCc1ccccc1 | -8.83
Cc1ccc(C(=O)N2CC(=O)Nc3ccc(F)cc3C2c2ccc(F)cc2)cc1[N+](=O)[O-] (stereo not drawn) | -47.6
Cc1nn(CC(=O)N2CCC(C(N)=O)CC2)c(=O)c2nn(-c3ccccc3)c(C)c12 | 11.1
COc1ccc(/C=N/N=C2/NC(=O)C(CC(=O)O)S2)cc1OCc1ccccc1Cl (stereo not drawn) | -0.227
C/C(=N\OC(=O)c1ccc(Br)cc1)c1ccccn1 | -1.74
CCOC(=O)N1CCC(NC(=O)CCc2c(C)nc3ncnn3c2C)CC1 | 12.4
O=C(O)C1CSC(c2ccccc2Cl)N1C(=O)c1ccc(Cl)cc1 (stereo not drawn) | 14.9
COc1ccc(NC(=O)CN(c2c(C)cccc2C)S(C)(=O)=O)cc1 | -42.5
O=C(Nc1ccccc1)c1ccc(Br)o1 | 3.15
COc1ccc(NC(C)=O)cc1S(=O)(=O)NC(C)c1ccc(-n2ccnc2)cc1 (stereo not drawn) | -3.74
COc1ccc(NC(=O)CC2S/C(=N\c3nccs3)N(C)C2=O)cc1 (stereo not drawn) | 4.06
O=C(c1cc2ccccc2oc1=O)N(Cc1ccccc1)CC1CCCO1 (stereo not drawn) | -1.8
O=C(CN(c1ccc2c(c1)OCCO2)S(=O)(=O)c1ccccc1)NCc1ccco1 | 4.37
CS(=O)(=O)N1CCN(C(=O)c2ccc3c(c2)OCCO3)CC1 | 16.7
COc1ccc(CSc2nnc(SCc3ccc([N+](=O)[O-])cc3)s2)cc1 | 0.108
Cc1ccc(OC(=O)C(C)c2cccc(C(=O)c3ccccc3)c2)cc1 (stereo not drawn) | 11.1
O=C1CC(c2ccccc2)c2cccc(F)c21 (stereo not drawn) | 6.18
Cc1cc(C)c(C(=O)N2CCCC(C(=O)c3cc(F)ccc3F)C2)o1 (stereo not drawn) | 2.67
Cc1nn(-c2ccccc2)c(Cl)c1C1C(C#N)=C(N)OC2=C1C(=O)CC(C)(C)C2 (stereo not drawn) | 3.18
